# Measurements published in PubChem BioAssay AID504845 (National Center for Advancing Translational Sciences (NCATS), 2011).
# Hit rate of the full screen: of about 390,000 compounds, about 150 (0.038%) were called active. Inconclusive results, whose numbers are uncertain, are shown with a selection of clear calls. Calls follow the shape of the dose curve; as a rule, active = well fitted inhibition curve with a large enough effect; inconclusive = small, poorly fitted or top-dose-only effect; inactive = no such curve, though single readings can be large or run the other way. Where the call is inconclusive, the potency comes from a doubtful curve fit.
# Target: Regulator of G-protein signaling 4 (Homo sapiens) (UniProt P49798)
# Sequence of UniProt P49798 (P49798 whole entry, looked up): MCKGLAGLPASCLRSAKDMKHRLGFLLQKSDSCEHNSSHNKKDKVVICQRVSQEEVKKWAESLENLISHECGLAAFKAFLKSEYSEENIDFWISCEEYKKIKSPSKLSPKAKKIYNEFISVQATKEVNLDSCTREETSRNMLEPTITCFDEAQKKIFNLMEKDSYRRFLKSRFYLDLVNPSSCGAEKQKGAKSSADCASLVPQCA
# Assay: Inhibitors of Regulator of G Protein Signaling (RGS) 4: qHTS; also: nearly all actives have a fitted effect of over 75% in size
# Conditions: Transcreener GDP fluorescence polarization, RGS4-accelerated GTP hydrolysis; series mostly up to 114 µM
# From the text: G-protein-coupled receptors (GPCRs) are well-established targets for drug discovery and development. Members of the "regulator of G-protein signaling" (RGS)-protein superfamily have recently emerged as critical modulators of specific GPCR signaling pathways. […] Combining specific RGS domain inhibitors with existing GPCR agonists should potentiate cellular responses and could also increase the specificity of action of existing therapeutics. Small molecule modulators of RGS domain activity should also have clinical utility in inhibiting or potentiating the actions of endogenous GPCR agonists. In particular, the diversity of RGS proteins with highly localized and dynamically regulated distributions in the human brain makes this family of proteins attractive targets for pharmacotherapy of central nervous system (CNS) disorders such as Parkinson's disease, schizophrenia, and anxiety.
# This assay was used to screen the NIH Molecular Libraries Small Molecule Repository (MLSMR) in order to identify a small molecule that inhibits RGS4.
# NIH Chemical Genomics Center [NCGC]
# NIH Molecular Libraries Probe Centers Network [MLPCN]
# Assay Submitter (PI): David Siderovski, University of North Carolina Chapel Hill (School of Medicine)
# Two microliters of 500nM (2x working concentration) is dispensed into black medium-binding solid-bottom Kalypsys plates. Then with the Kalypsys pintool 23nl of control and compounds are transferred; the control compound is […] CCG-4986 (working concentration). After a 10 minute incubation at room temperature 2ul of antibody is added with the Kalypsys dispenser; (-)RGS4/Transcreener GDP solution in columns 3 and 4 which consisted of 10nM (2x working concentration) Alexa633, 20uM GTP, and 20 ug/ml GDP antibody and (+)RGS4/Transcreener GDP solution in columns 1,2, and 5 to 48 which consists of 900nM RGS4 (2x working concentration), 10nM Alexa633, 20 ug/ml GDP antibody. The plate is centrifuged at 1000 RPM for 15 seconds to remove any possible bubbles and then incubated for 5 minutes at ambient room temperature. An initial fluorescent polarization read (620 nm/688 nm) is performed on the Envision before the plate is incubated for 90 minutes at 30 deg C at a relative humidity of 80%. The plate is once more centrifuged at 1000 RPM for 15 seconds and another Envision fluorescent polarization (620 nm/688 nm) read is carried out.
# % is scaled to controls: 0 for no effect and ±100 for the full control effect; potency is read from the fitted curve at half-maximal effect; tags tell the direction and shape of the fitted curve.
Structure (SMILES),Potency,"activity change, negative = inhibition"
Cc1nnc(-c2ccccc2)c(=O)n1/N=C/c1c(O)ccc2ccccc12,inactive,
CCOc1ccc(CC(=O)Nc2ccc(-c3ccc4nnc(C)n4n3)cc2)cc1,"inconclusive: 70.8 µM [inhibitor, partial curve, poor fit]",
O=C(NNc1cc(Cl)ccc1Cl)C1CCC1,"inconclusive: 56.2 µM [inhibitor, partial curve, poor fit]",
CCOC(=O)c1cc2c(=O)n3ccccc3nc2n(Cc2ccco2)c1=NC(=O)c1cccnc1,"inconclusive: 79.4 µM [inhibitor, partial curve, poor fit]",
O=[N+]([O-])c1ccc(Cl)c(S(=O)(=O)/N=C(/Sc2ccc(Br)cc2)c2ccccc2)c1,"inconclusive: 79.4 µM [inhibitor, partial curve, poor fit]",
CC(=O)c1ccc(N2CCN(S(=O)(=O)c3cccc4nsnc34)CC2)cc1,"inconclusive: 20 µM [inhibitor, full curve, poor fit]",
COCCOC(=O)c1c(C)n(S(=O)(=O)c2ccc(C)cc2)c2ccc(NS(=O)(=O)c3ccc(C)cc3)cc12,inactive,
CN1N=C(C(=O)N2CCc3c([nH]c4ccccc34)C2c2ccccc2Cl)CCC1=O (stereo not drawn),"inconclusive: 89.1 µM [inhibitor, partial curve, poor fit]",
O=C(CCN1C(=O)C2C3C=CC(C3)C2C1=O)N1CCN(c2cccc(Cl)c2)CC1 (stereo not drawn),"inconclusive: 79.4 µM [inhibitor, single point]",
COC(=O)c1scc(-c2ccc(C)cc2)c1S(=O)(=O)Nc1cc(Cl)ccc1C,inactive,
COc1ccc(CC(=O)NCc2nnc(SCCOc3ccccc3)n2C)cc1,"inconclusive: 89.1 µM [inhibitor, single point]",
O=C(Nc1cccc(S(=O)(=O)N2CCOCC2)c1)c1ccc(Cl)nc1,inactive,
O=C(N/N=C/c1ccc(-c2cccc([N+](=O)[O-])c2)o1)c1ccc([N+](=O)[O-])cc1,"inconclusive: 17.8 µM [inhibitor, full curve, poor fit]",
O=C(CCC1CCCN(C(=O)c2cncs2)C1)NCc1ccc(F)c(F)c1 (stereo not drawn),"inconclusive: 17.8 µM [inhibitor, full curve, poor fit]",
Cc1ccc(NC(=O)c2ccc(-c3nn(C)c(=O)c4ccccc34)cc2)cc1,inactive,
COc1cc(/C=N/NC(=O)c2cncc(Br)c2)cc([N+](=O)[O-])c1O,,inactive: 18.1% [at 11.4 µM]
Cc1cccc(OCC(=O)N2CCC(c3ccccc3)C2)c1 (stereo not drawn),inactive,
COc1cc(C(=O)Oc2cccc(C=O)c2)cc(OC)c1OC,inactive,
O=C(CSc1ncc(C(F)(F)F)cc1Cl)N1CCN(S(=O)(=O)c2ccc3ccccc3c2)CC1,"inconclusive: 89.1 µM [inhibitor, single point]",
Cc1c(CC(=O)N[C@@H](C)C(=O)O)c(=O)oc2cc3occ(-c4ccccc4)c3cc12,"inconclusive: 56.2 µM [inhibitor, partial curve, poor fit]",
COc1ccc(-c2[nH]ncc2/C=N/NC(=O)c2cc(Br)ccc2O)c(OC)c1,"inconclusive: 100 µM [inhibitor, single point]",

Structure (SMILES),Potency,"activity change, negative = inhibition"
O=C(O)CCc1ccc(-c2cccs2)o1,"inconclusive: 50.1 µM [inhibitor, partial curve, poor fit]",
CCn1c(=O)c2c3c(sc2n2c(=S)[nH]nc12)CCC3,"inconclusive: 89.1 µM [inhibitor, single point]",
CCOC(=O)CN1NC2(CCCCCCC2)NC1=S,"inconclusive: 44.7 µM [inhibitor, partial curve, poor fit]",
O=C1NC(=Nc2cccnc2)S/C1=C\c1cccc(F)c1,inactive,
CCN(CC)c1ccc2oc(=O)c(C)nc2c1,"inconclusive: 28.2 µM [inhibitor, full curve, poor fit]",
COc1cc(C(=O)NCC(c2cccs2)N2CCOCC2)cc(Br)c1OCc1ccccc1 (stereo not drawn),inactive,
CC(C)(C)NC(=O)C[C@H]1C[C@H](C(=O)N2CCCCC2)[C@@]2(C)c3[nH]c4cc(-c5ccco5)ccc4c3CCN2C1=O,"inconclusive: 79.4 µM [inhibitor, partial curve, poor fit]",
CCN(CC)CCOC(=O)c1ccc(NC(=O)Cn2ncc3c([nH]c4ccc(C)cc43)c2=O)cc1,"inconclusive: 56.2 µM [inhibitor, partial curve, poor fit]",
O=[N+]([O-])c1ccc(-c2nc(-c3ccc(F)cc3)c(-c3ccncc3)[nH]2)cc1,"inconclusive: 0.843 µM [inhibitor, full curve, poor fit]",
CCC/C(O)=C1\C(=O)CC(C)(C)CC1=Nc1ccc(OC)cc1OC,"inconclusive: 89.1 µM [inhibitor, single point]",
COc1cc(/C=C/C(=O)c2ccc(C)c([N+](=O)[O-])c2)cc(OC)c1O,inactive,
Cc1cccc(/C=N/n2c(C)nnc2C)c1,"inconclusive: 89.1 µM [inhibitor, single point]",
COc1cccc2c3c(c(C)nc12)CC(C)O3 (stereo not drawn),inactive,
N#CC1=C(N)SC(N)=C(C#N)C1c1cccc(Oc2ccccc2)c1,"inconclusive: 10 µM [inhibitor, full curve, poor fit]",
O=C(O)CCN1C(=O)/C(=C\c2cccc(Oc3ccccc3)c2)SC1=S,"inconclusive: 50.1 µM [inhibitor, partial curve, poor fit]",
CC1C/C(=C/c2ccccn2)C(=O)/C(=C/c2ccccn2)C1 (stereo not drawn),"inconclusive: 22.4 µM [inhibitor, full curve, poor fit]",
CN1C(=O)c2ccc(NC(=O)c3c(F)c(F)c(F)c(F)c3F)cc2C1=O,"inconclusive: 79.4 µM [inhibitor, partial curve, poor fit]",
O=C(NCc1ccccn1)c1ccc2c(c1)N(Cc1ccccc1)CCS2,"inconclusive: 89.1 µM [inhibitor, single point]",
O=C1c2ccccc2C(=O)N1CC(O)CNc1ccc(Br)cc1 (stereo not drawn),inactive,
Cc1ccc(NC(=O)CCC(=O)N/N=C/c2ccco2)c(C)c1,"inconclusive: 100 µM [inhibitor, single point]",
COc1cc2cc(/C=C/C(=O)c3ccco3)c(Cl)nc2cc1OC,"inconclusive: 100 µM [inhibitor, single point]",

Structure (SMILES),Potency,"activity change, negative = inhibition"
O=C1C2C(c3ccccc3)(C(=O)N1c1ccc(Cl)cc1)C2(c1ccccc1)c1ccccc1 (stereo not drawn),"inconclusive: 56.2 µM [inhibitor, partial curve, poor fit]",
CCCCC1=CC2=C(c3ccco3)C(=O)C(C)(OC(=O)c3ccc(OC)cc3)C(=O)C2=CN1CCc1ccccn1 (stereo not drawn),"inconclusive: 79.4 µM [inhibitor, partial curve, poor fit]",
Cc1sc2nc(CSC(C)C(=O)Nc3ccc(C(N)=O)cc3)[nH]c(=O)c2c1C (stereo not drawn),"inconclusive: 100 µM [inhibitor, partial curve, poor fit]",
Cc1ccc(NC(=O)Cn2c(=O)n(CC3CCC(C(=O)NC(C)C)CC3)c(=O)c3sccc32)cc1 (stereo not drawn),inactive,
COc1ccccc1NC(=O)CN1CCN(CC(=O)Nc2ccccc2Cl)CC1,inactive,
O=c1[nH]c(=S)[nH]c2scc(-c3ccc(Br)cc3)c12,"inconclusive: 17.8 µM [inhibitor, full curve, poor fit]",
O=c1[nH]cc(S(=O)(=O)c2ccccc2)[nH]1,"inconclusive: 31.6 µM [inhibitor, full curve, poor fit]",
O=C(CSc1ccc([N+](=O)[O-])cc1)c1ccccc1,"inconclusive: 79.4 µM [inhibitor, partial curve, poor fit]",
CC(=O)Nc1ccc(-n2nnnc2SCC(=O)Nc2cccc(NC(=O)c3ccco3)c2)cc1,"inconclusive: 17.8 µM [inhibitor, full curve, poor fit]",
CC1CCN(C(=O)CSc2c3c(nc4ccc(Cl)cc24)CCCC3)CC1,inactive,
O=[N+]([O-])c1cc2no[n+]([O-])c2cc1N1CCCCC1,"inconclusive: 17.8 µM [inhibitor, full curve, poor fit]",
Oc1ccc(C[C@H]2CNC(=S)N2CC2CCCN2C[C@H](Cc2ccc(O)cc2)N2C[C@H](Cc3ccc(O)cc3)N(CC3CCCCCC3)C2=S)cc1 (stereo partly drawn),inactive,
CC(=O)N1CCN(S(=O)(=O)c2cccc(C(=O)Nc3ccc(OC(F)F)cc3)c2)CC1,inactive,
CC(C)(C)NC(=O)COc1ccc(CNc2ccc3[nH]c(=O)[nH]c3c2)cc1,"inconclusive: 100 µM [inhibitor, single point]",
COc1cccc(-c2n[nH]c(=S)n2Cc2ccco2)c1,"inconclusive: 35.5 µM [inhibitor, full curve, poor fit]",
N#CSCC(=O)c1cccc2ccccc12,"inconclusive: 79.4 µM [inhibitor, partial curve, poor fit]",
CC(=O)Nc1ccc(C=CC=Cc2cccc([N+](=O)[O-])c2)cc1,"inconclusive: 79.4 µM [inhibitor, partial curve, poor fit]",
COc1ccc(/C=C2\COc3ccccc3C2=O)cc1OC,"inconclusive: 31.6 µM [inhibitor, partial curve, poor fit]",
COc1cc(OC)cc(C(=O)NCC(=O)OCc2csc(-c3ccccc3)n2)c1,"inconclusive: 56.2 µM [inhibitor, partial curve, poor fit]",
CCOc1cccc(C2C=C(c3ccc4c(c3)OCO4)NC(c3ccccc3Cl)N2)c1O (stereo not drawn),inactive,
C=C(C)C1CC=C(C)/C(=N\NC(=S)Nc2ccc(C)cc2)C1 (stereo not drawn),inactive,
